{
  "source": "ChEMBL document CHEMBL4888484",
  "about": "“Replenishing the malaria drug discovery pipeline: Screening and hit evaluation of the MMV Hit Generation Library 1 (HGL1) against asexual blood stage Plasmodium falciparum ,using a nano luciferase reporter read-out” (2022)",
  "note": "Out of some 150,000 compounds screened, about 540 (0.36%) showed an effect of 50% or more. Some of the results follow.",
  "data": [
    {"system": "Plasmodium falciparum", "assay": "Primary screen in NF54 nanoGlo assay, in single point, at 2uM, 72h; a lower Z score goes with more inhibition", "assay_type": "functional, Erythrocyte", "conditions": "timepoint 72 hour", "units": {"% Inhibition": "%"}, "values": [
      {"smiles": "c1cc(CCN2CCC[C@H](Cn3cncn3)C2)ccn1", "% Inhibition": -3, "Z score": 0.4},
      {"smiles": "c1c[nH]c(C(N[C@H]2CCCNC2)C2CCCCC2)n1", "note": "(stereo not given in full)", "% Inhibition": -3, "Z score": 0.38},
      {"smiles": "COc1cccc2c1Oc1c(c(=O)n(-c3ccc(C)cc3C)n1CC(=O)Nc1ccccc1C)C2", "% Inhibition": 2, "Z score": -0.37},
      {"smiles": "Cn1ccc2c(cc(C(=O)N3CCN(c4ccccn4)CC3)n2C)c1=O", "% Inhibition": -14, "Z score": 1.39},
      {"smiles": "CC[C@H](NC(=O)Nc1ccc(F)cc1)c1nc(C)n[nH]1", "% Inhibition": -12, "Z score": 2.17},
      {"smiles": "CCN(CC)CC#C[C@](O)(c1ccccc1)c1cccnc1", "% Inhibition": -4, "Z score": 0.77},
      {"smiles": "COc1cc2c(cc1OC)CN(S(=O)(=O)C1CCCCC1)CC2", "% Inhibition": -15, "Z score": 1.88},
      {"smiles": "CC(=O)N1CCc2cc(NS(=O)(=O)c3ccc(F)c(F)c3)ccc21", "% Inhibition": 2, "Z score": -0.33},
      {"smiles": "CCn1cc(C)c(C(=O)O)c1CC(=O)Nc1ccc(F)cc1Cl", "% Inhibition": 5, "Z score": -0.67},
      {"smiles": "CCCC1CCCCN1C(=O)C(C)C(=O)O", "note": "(stereo not given)", "% Inhibition": -15, "Z score": 1.73},
      {"smiles": "N#Cc1c(F)ccc(NC(=O)C2(C(F)F)CCCC2)c1N", "% Inhibition": 21, "Z score": -2.69},
      {"smiles": "Cc1ccc(CN2CC[C@@H]3CN(S(C)(=O)=O)[C@@H]3C2)c(C)c1", "% Inhibition": -6, "Z score": 0.75},
      {"smiles": "CCCN1CCC(Nc2ccc(-n3ccnn3)cc2)CC1", "% Inhibition": -11, "Z score": 2.2},
      {"smiles": "Cc1cc2c(cc3n2C[C@@](C)(C(=O)NC2CCCCC2)N(Cc2ccccc2F)C3=O)o1", "% Inhibition": 1, "Z score": -0.28},
      {"smiles": "O=C(NCCC1=CCCCC1)c1cscn1", "% Inhibition": 0, "Z score": -0.07},
      {"smiles": "O=C(NC[C@H]1CCCN1c1ncccn1)Nc1ccccc1", "% Inhibition": -5, "Z score": 0.57},
      {"smiles": "O=c1[nH]c2cc(Cl)c(S(=O)(=O)Cl)cc2[nH]1", "% Inhibition": 69, "Z score": -7.82},
      {"smiles": "CCC(=O)NCCc1ccc(C(F)(F)F)cn1", "% Inhibition": -1, "Z score": 0.13},
      {"smiles": "COc1ccc(-c2nc3c([nH]2)CCN(C(=O)NC(C)(C)C)C3)cn1", "% Inhibition": -1, "Z score": 0.21},
      {"smiles": "O=C(O)CC(NC(=O)C1Cc2ccccc21)c1cccc(Cl)c1", "note": "(stereo not given)", "% Inhibition": 4, "Z score": -0.81},
      {"smiles": "CC(=O)N1CCN(c2cc(-c3noc([C@@H]4CCCN4Cc4ccccn4)n3)ccn2)CC1", "% Inhibition": -3, "Z score": 0.42},
      {"smiles": "CC(C)Oc1ccc(C(=O)NCc2cccnc2-c2ccncc2)cc1", "% Inhibition": 2, "Z score": -0.35},
      {"smiles": "COc1cc([C@@H]2C[C@H](NC(C)=O)C[C@H](CC(C)C)O2)ccc1F", "% Inhibition": -8, "Z score": 0.74},
      {"smiles": "Cc1csc(-c2cc(S(=O)(=O)Nc3ccc(F)cc3Cl)c(C)s2)n1", "% Inhibition": -10, "Z score": 1.18},
      {"smiles": "COc1ccc(-c2noc(CCN(C(=O)COCc3ccccc3)C3CCCCC3)n2)cc1OC", "% Inhibition": 0, "Z score": -0.04},
      {"smiles": "O=C(CN1CCOCC1)Nc1ccc(N2CCCC2)c(F)c1", "% Inhibition": -9, "Z score": 1.16},
      {"smiles": "CC1CC(C)CC(C(=O)NS(=O)(=O)CCCC(F)(F)F)C1", "note": "(stereo not given)", "% Inhibition": -13, "Z score": 2.09},
      {"smiles": "Clc1ccc(CCCc2nc(CN3CCOCC3)no2)cc1", "% Inhibition": -9, "Z score": 0.96},
      {"smiles": "O=C(COc1ccc(Cl)cc1)NC[C@@H](c1ccsc1)N1CCCC1", "% Inhibition": 4, "Z score": -0.44},
      {"smiles": "O=C(COc1ccc(Cl)cc1)NC[C@@]1(O)C=CCCC1", "% Inhibition": -4, "Z score": 0.62},
      {"smiles": "Cc1ccoc1C(=O)Nc1cccc2oc(C(F)(F)F)nc12", "% Inhibition": -5, "Z score": 0.88},
      {"smiles": "CCn1ccc(C(=O)N2CCCCC[C@H](Nc3nc(CCOC)ns3)C2)n1", "% Inhibition": 22, "Z score": -2.81},
      {"smiles": "CN=C(c1ccccc1)N1CCN(CCc2ccccn2)CC1", "% Inhibition": 12, "Z score": -2.04},
      {"smiles": "Cc1cc(=O)c(C(=O)Nc2ccc(-c3ccccn3)cn2)c[nH]1", "% Inhibition": 2, "Z score": -0.42},
      {"smiles": "Cc1csc(CNCC2(CS(C)(=O)=O)CC2)n1", "% Inhibition": -11, "Z score": 1.13},
      {"smiles": "CCC[C@H]1CN(C(=O)c2ccccc2Cc2ccc(C)cc2)C[C@@H]1N", "% Inhibition": 6, "Z score": -0.54},
      {"smiles": "Fc1cccc2sc(OC3CCNCC3)nc12", "% Inhibition": -1, "Z score": 0.12},
      {"smiles": "Cc1ccccc1[C@@H]1c2ccsc2CCN1CCC(=O)N1CCCN(C(=O)CC(C)(C)C)CC1", "% Inhibition": -2, "Z score": 0.29},
      {"smiles": "CCc1nnc(CNC(=O)c2cc(O)cc(C(=O)OC)c2)o1", "% Inhibition": 5, "Z score": -1.02},
      {"smiles": "C[C@@H](C(=O)N1CCOCC1)N1CCC(c2ccn[nH]2)CC1", "% Inhibition": -15, "Z score": 1.88},
      {"smiles": "COC[C@H](C)N(C)Cc1cn2ccccc2c1C#N", "% Inhibition": -8, "Z score": 1.53},
      {"smiles": "CC(C)(C1=CCCCC1)c1noc(C2CN(C(=O)C3CCCCC3)C2)n1", "% Inhibition": -10, "Z score": 1.57},
      {"smiles": "O=C(c1ccccc1F)N1c2ccccc2CCc2ccccc21", "% Inhibition": -14, "Z score": 2.05},
      {"smiles": "NC1(Cc2cc(-c3cccc(O)c3)on2)COC1", "% Inhibition": 19, "Z score": -2.2},
      {"smiles": "CCCNc1nc(N2CCOCC2)nc2c1cnn2C", "% Inhibition": 6, "Z score": -1.06},
      {"smiles": "Cc1nnnn1Cc1ccc(C(=O)N2CCc3[nH]c(-c4cn[nH]c4)nc3C2)cc1", "% Inhibition": 10, "Z score": -1.82},
      {"smiles": "Cc1ccc(C(=O)Nc2sc(N)nc2-c2cccs2)cc1", "% Inhibition": -11, "Z score": 1.66},
      {"smiles": "CCc1noc(COc2ccc(C)cc2C(=O)Nc2ccncc2)n1", "% Inhibition": 3, "Z score": -0.37},
      {"smiles": "CCc1nc(C[C@H]2CN(c3nc(C)nc4c3cnn4C)CCO2)no1", "% Inhibition": 2, "Z score": -0.32},
      {"smiles": "CC(C)S(=O)(=O)CCNC(=O)c1coc(C2CCOCC2)n1", "% Inhibition": -6, "Z score": 1.07},
      {"smiles": "CC(C)C[C@@H](CO)NC(=O)Nc1ccc(C(C)(C)C#N)cc1", "% Inhibition": 0, "Z score": 0},
      {"smiles": "CCC(CC)C(=O)N1CC[C@@H](CC(=O)O)[C@@H](CC2=NCCc3ccc(C)cc32)C1", "% Inhibition": -3, "Z score": 0.34},
      {"smiles": "Nc1c(NC(=O)N2CCOCC2)c(-c2ccccc2)nn1-c1ccc(F)cc1", "% Inhibition": 14, "Z score": -1.6},
      {"smiles": "C=CC[C@]1(CO)CCCN(c2nc(N)nc3c2CCC3)C1", "% Inhibition": -5, "Z score": 0.64},
      {"smiles": "CC(C)(C)C[C@H](NC(=O)Nc1cccnn1)C(F)(F)F", "% Inhibition": -1, "Z score": 0.1}
    ]}
  ]
}
